# Laboratory results: paper PMC6919601, “Identification of Plasmodium dipeptidyl aminopeptidase allosteric inhibitors by high throughput screening” (PLoS ONE, 2019)
# “And” between values parts separate entries of the source, which are not always exact repeats. Equal values may be shown once. Screen size: about 110,000 compounds; about 230 (0.21%) showed an effect of 50% or more. The list shows a part of the results.
# Target: DPAP1 (Plasmodium falciparum, UniProt Q8IIJ9)
# Experiment: primary screen, percent inhibition; read by cleavage of a fluorogenic dipeptide substrate; higher = more effect of the substance
# Parameters: species or system P. falciparum D10 trophozoite lysates; single well
# 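Further: 30 min substrate incubation versus DMSO and 10 µM JCP410 controls.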
# Sequence of DPAP1 (Q8IIJ9 whole entry, looked up): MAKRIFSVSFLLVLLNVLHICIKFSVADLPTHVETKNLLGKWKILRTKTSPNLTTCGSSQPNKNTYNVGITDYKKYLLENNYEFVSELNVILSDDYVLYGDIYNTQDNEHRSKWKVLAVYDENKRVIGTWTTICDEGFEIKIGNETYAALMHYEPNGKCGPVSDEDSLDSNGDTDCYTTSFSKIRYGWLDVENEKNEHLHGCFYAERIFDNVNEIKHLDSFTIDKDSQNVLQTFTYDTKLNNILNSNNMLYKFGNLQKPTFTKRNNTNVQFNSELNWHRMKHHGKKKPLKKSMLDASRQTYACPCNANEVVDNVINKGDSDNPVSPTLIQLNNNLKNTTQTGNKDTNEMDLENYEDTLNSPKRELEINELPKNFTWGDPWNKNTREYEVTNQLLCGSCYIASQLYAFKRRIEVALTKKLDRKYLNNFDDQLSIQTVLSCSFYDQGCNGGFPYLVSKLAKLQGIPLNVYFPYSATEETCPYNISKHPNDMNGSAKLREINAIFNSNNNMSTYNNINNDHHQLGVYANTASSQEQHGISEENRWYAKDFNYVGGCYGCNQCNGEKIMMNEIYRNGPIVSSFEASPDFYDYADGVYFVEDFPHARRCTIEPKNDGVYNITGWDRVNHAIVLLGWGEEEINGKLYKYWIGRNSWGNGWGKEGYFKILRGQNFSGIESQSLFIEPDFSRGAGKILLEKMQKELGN
row,SMILES,% Inhibition @ 10 uM
1,C=CCNC(=O)C(=O)Nc1cc(OC)ccc1OC,-7.5%
2,CN1C(=O)/C(=C2\SC(N3CCOCC3)=NC2=O)c2ccccc21,-6.68%
3,COc1ccc(C(=O)N[C@@H](Cc2cc(I)c(O)c(I)c2)C(=O)NCC#N)cc1,-3.25%
4,Cc1cc(C)n2c(SCc3ccc(Cl)cc3Cl)nnc2n1,-3.4%
5,O=C(NC1CCSC1=O)c1ccccc1Cl (stereo not shown),0.62%
6,CC(C)CNC(=O)C(=O)NCc1ccccn1,-5.26%
7,N#Cc1cc2c(nc1SCC(=O)Nc1cccc(F)c1)CCCCC2,-0.413%
8,Cc1cccc(-c2nc(SCC(=O)Nc3nccs3)c(-c3ccccc3)[nH]2)c1,-3.39%
9,Cc1cc(C)c(OCC(O)CN2CCOCC2)c(C)c1 (stereo not shown),0.035%
10,O=[N+]([O-])c1cccc(NCc2ccccc2)c1,3.06%
11,COc1ccc(N(CC(=O)NCc2ccco2)S(=O)(=O)c2ccc(C)cc2)cc1Cl,0.161%
12,NCC(=O)N1CCC2(C=Cc3ccccc32)CC1,-3.09%
13,CC(=O)N1CC(C)c2scc(C)[n+]2-c2ccccc21 (stereo not shown),-2.98%
14,N#C/C(=C\NCC(=O)O)C(=O)NCc1ccccc1,-6.69%
15,CCOc1ccc(S(=O)(=O)NCCOC)c2ccccc12,-5.19%
16,COc1ccc(CCN(C)C(=O)C2CCCN(Cc3ccc(OC)c(OC)c3)C2)cc1OC (stereo not shown),-2.98%
17,COCC(=O)Nc1nc2nc(-c3ccccc3)cc(O)n2n1,-3.08%
18,CCCNC(=O)c1cc2n(n1)C(C(F)(F)F)CC(c1ccc(C)cc1)N2 (stereo not shown),10.8%
19,CC1CC(C)CN(C(=O)c2cnc3ccc(S(=O)(=O)N(C)CCC#N)cc3c2O)C1 (stereo not shown),-3.21%
20,CSc1nn(-c2cc(Oc3ccccc3C)ncn2)c(N)c1C#N,-6.18%
21,CCOc1cc(C)c(S(=O)(=O)NCc2ccc3c(c2)OCO3)cc1C,-5.41%
22,CCn1cc(CNC(=O)c2cc(-c3ccc(C)c(C)c3)nc3ccccc23)cn1,0.64%
23,O=C(Cc1cccs1)N1CCN(c2ccccc2)CC1,-6.25%
24,O=C(NCc1cccnc1)C(=O)N1CCCC1,-1.75%
25,CN1CCN(C(=O)C2c3ccccc3C(=O)N(C3CCCC3)C2c2cccs2)CC1 (stereo not shown),-6.56%
26,CN(Cc1nc2ccccc2n1C)S(=O)(=O)c1ccc(F)cc1,2.42%

row,SMILES,% Inhibition @ 10 uM
1,CC1=NN(c2ccccc2)C(=O)/C1=C/c1ccc(Cl)cc1,-2.59%
2,CCN(CC)C(=O)C1CCCN(CC2CC=CCC2)C1 (stereo not shown),-1.5%
3,Oc1ccc(CN2CCC(Cc3ccccc3)CC2)cc1,-0.828%
4,Brc1ccc(CN2CCN(c3ccccc3)CC2)s1,-3.72%
5,COc1ccc(CCNC(=O)c2nc(S(=O)(=O)Cc3ccc(C)cc3)ncc2Cl)cc1OC,0.758%
6,CCN(CC)C(=O)CN1Cc2ccccc2C1=O,3.87%
7,CC1CN(C(=O)Cn2cnc3c2c(=O)n(C)c(=O)n3C)CC(C)O1 (stereo not shown),8.09%
8,CC(CCc1ccco1)NC(=O)c1nn(C)c2c1CS(=O)(=O)c1ccccc1-2 (stereo not shown),5.82%
9,Cc1ccc(C2=C/C(=C\c3cccs3)C(=O)O2)cc1C,-0.169%
10,Brc1ccccc1OCCCN1CCCCC1,6.83%
11,CCOc1cc2c(cc1OCC)C(c1ccc(OC(C)C)cc1)NCC2 (stereo not shown),3.53%
12,CNC(=O)/C(=C/c1ccco1)NC(=O)c1ccc(OC)cc1,22.9%
13,O=C(c1sc2ccccc2c1Cl)N1CCN(c2cccc(C(F)(F)F)c2)CC1,-9.52%
14,N=C(Cc1ccc(Cl)c(Cl)c1)NOC(=O)c1ccc2c(c1)OCO2,-0.386%
15,COc1ccc(C2C(C#N)=C(N)Oc3[nH]nc(C)c32)cc1COc1ccccc1 (stereo not shown),-5.48%
16,CC(C)c1ccc(/C=C2\SC(N3CCCC3)=NC2=O)cc1,12.3%
17,Cc1cccc(/N=c2\scc(-c3ccc(F)cc3)n2CCO)c1,-3.87%
18,COc1cccc(C2C3=C(O)CC(C)(C)CC3=Nc3ccccc3N2C(=O)C(F)(F)F)c1OC (stereo not shown),2.01%
19,Clc1ccccc1-c1nnc2c3cnn(Cc4ccccc4)c3ncn12,2.95%
20,COc1ccc(C)cc1N(CC(=O)N1CCOCC1)S(=O)(=O)c1ccccc1,2.97%
21,CCCN(CCO)Cc1ccc(OCC)cc1,1.62%
22,COCCNC(=O)CSCc1nc(-c2ccccc2C)oc1C,0.689%
23,CN1CCCC1CCNC1CC2CCC1C2 (stereo not shown),1.62%
24,CC1CN=C(/C=C(\O)c2ccccc2)C(=O)N1 (stereo not shown),5.67% and 0.565%
25,O=C(CCC1CCCCC1)Nc1c2c(nn1-c1cccc(Cl)c1)CS(=O)(=O)C2,9.36%
26,COCCN(Cc1ccc(C)c(Br)c1)S(=O)(=O)c1cc(-c2cc(C)no2)ccc1C,-3.42%

row,SMILES,% Inhibition @ 10 uM
1,CNC(=O)C1COc2ccccc2O1 (stereo not shown),-0.239%
2,CCOC(=O)c1cc(-c2ccc(F)cc2)n(CC(=O)N2CCC(C)CC2)c1C,0.387%
3,CN(CCNS(=O)(=O)c1ccc(-c2ccc(O)nn2)s1)C1CCCCC1,-3.97%
4,O=S(=O)(Cc1ccccc1)NCc1ccc2c(c1)OCO2,-3.45%
5,CC(=O)NS(=O)(=O)c1ccc(NC(=O)C(C)Oc2ccc(Cl)cc2Cl)cc1 (stereo not shown),-1.28%
6,COCCCNC(=O)CNC(=S)N(Cc1cccs1)C1CCCCC1,-0.406%
7,O=C(O)c1nn2c(C(F)(F)F)cc(-c3ccccc3)nc2c1Cl,-4.15%
8,CC(C)=C1C2CCC1C1C(=O)N(c3ccc4c(c3)OCO4)C(=O)C21 (stereo not shown),-2.07%
9,CC1(C)CC(=O)C(/C=N/CC2CCN(C(=O)Cc3ccccc3)CC2)=C(O)C1,3.72%
10,CCc1cccc(C)c1NC(=O)c1ccc(CN2CCOCC2)cc1,-9.02%
11,COc1ccccc1CN1CCCN(C)CC1,-0.127%
12,O=C(NCc1ccc(F)cc1)c1ccc(C(=O)NCc2ccc(F)cc2)nc1,2.03%
13,Cc1ccc(NC(=O)/C(=C/c2ccco2)NC(=O)c2ccc(Br)o2)cc1,2.36%
14,CCCCN(CC)CCCNC(=O)CS(=O)Cc1nc(-c2ccc(OC)c(OC)c2)oc1C (stereo not shown),-6.64%
15,COc1cccc(C(=O)Nc2cccc3ccccc23)c1,2.6%
16,Brc1cccc2c3c4n(c12)CC1COC4(CCC3)O1 (stereo not shown),3.74%
17,CCC(Sc1nc2cccnc2[nH]1)C(=O)NCc1ccco1 (stereo not shown),3.21%
18,CN(C)CC(C)(C)CNC1CCN(CCc2ccccc2)CC1,-3.82%
19,COC(=O)C1=C(C)NC(=O)CC1c1ccc(F)c(F)c1 (stereo not shown),-3.63%
20,Clc1cccc(-c2nnc3sc(-c4ccco4)nn23)c1,-2.21%
21,Cc1ccc(C2CC(=O)NC(SCC(=O)Nc3ccc(C)cc3Br)=C2C#N)cc1 (stereo not shown),-4.41%
22,COCCNC(=O)C1CCCN(c2nnc(C)c3c(C)n(-c4ccc(OC)cc4)nc23)C1 (stereo not shown),3.25%
23,Cc1ccc(-n2cc(C#N)c(C(=O)c3ccccc3)n2)cc1,-2.56%
24,CCc1ccc(CNCc2c(C(=O)O)c(C)n(Cc3ccccc3C)c2C)cc1,-11.3%
25,O=C(Cn1nc(-c2ccc(Cl)cc2)ccc1=O)N1CCN(Cc2ccccc2)CC1,-3.58%
26,O=C(c1ccc([N+](=O)[O-])cc1)N1CCN(c2cccc(Cl)c2)CC1,-4.3%

row,SMILES,% Inhibition @ 10 uM
1,CN1C(=C2C(=O)NC(=O)NC2=O)Sc2ccccc21,-1.2%
2,CCN1C(=O)CC(C(=O)Nc2ccccc2OC)S/C1=N\c1cccc(C(F)(F)F)c1 (stereo not shown),3.8%
3,Cc1ccc2nc(O)c3cc(C(=O)NCc4ccc(F)cc4)sc3c2c1,3.32%
4,CCOC(=O)C1=C(C)N(C)C(C)=C(C(=O)OCC)C1c1ccncc1,3.47%
5,CCCN1CCC(N2CCCCCCC2)CC1,1.38%
6,CCOC(=O)N1CCN(CC(C)c2ccccc2)CC1 (stereo not shown),3.35%
7,Cc1cc(C)c(NC(=O)c2ccccc2)c(C)c1,-0.546%
8,O=C(NCCCN1CCCC1=O)C1CCN(c2nc3ccccc3n3cccc23)CC1,-2.27%
9,O=C(C1CC1c1ccccc1)N1CCC(c2ccccc2)C1 (stereo not shown),1.63%
10,COc1ccc(C(=O)Nc2ccc3ccccc3c2)cc1,-1.48%
11,COc1ccc(/N=C2/S/C(=C\c3cc(Cl)ccc3O)C(=O)N2C)cc1,11.8%
12,CC(C)C[C@H](NC(=O)OCc1ccc2ccccc2c1)C(=O)NCC#N,0.174%
13,COc1ccccc1N1CCN(C(=O)c2ccc(C)cc2)CC1,-4.4%
14,CCc1cc(=O)oc2cc(C)cc(O)c12,1.37%
15,CCNCC1OCCc2ccccc21 (stereo not shown),-10.2%
16,CCSc1nnc(NC(=O)c2cc(=O)c3ccc(C)cc3o2)s1,1.9%
17,CC1C2CC(C(S(=O)(=O)O)C2=O)C1(C)C (stereo not shown),-7.55%
18,O=C(NCc1ccco1)NC1(C(F)(F)F)Oc2cc(Cl)c(Cl)cc2O1,2.84%
19,CCCCc1ccc(N2CC(C(=O)Nc3ccccc3F)CC2=O)cc1 (stereo not shown),0.726%
20,CCOC(=O)c1c(NC(=O)CSC2=NN3CCCC(=O)N=C3S2)sc2c1CCC2,2.77%
21,CC(=O)c1ccc(OCC(O)CN2CCCCC2C)cc1 (stereo not shown),2.13%
22,CCOc1ccc(/C=C2\CN(CC)CC3=C2OC(N)=C(C#N)C3c2ccc(OCC)cc2)cc1 (stereo not shown),-1.06%
23,N#CC1=C(N)Oc2[nH]nc(-c3ccccn3)c2C1c1ccccc1F (stereo not shown),-10.4%
24,O=[N+]([O-])c1ccc(-c2cc(-c3ccc([N+](=O)[O-])cc3)[nH]n2)cc1,3.01%
25,CC(C)(C)C(=O)Nc1ccc(S(=O)(=O)c2ccc(NC(=O)C(C)(C)C)cc2)cc1,6.31%
